# Experimental data reported in PubChem BioAssay AID504832 (National Center for Advancing Translational Sciences (NCATS), 2011).
# The campaign covered roughly 310,000 compounds. About 18,000 (5.8%) were called active. This list was built around the results that the source calls inconclusive (neither active nor inactive); the mix of calls is not that of the screen. Calls follow the shape of the dose curve; as a rule, active = well fitted inhibition curve with a large enough effect; inconclusive = small, poorly fitted or top-dose-only effect, or another doubt; inactive = no such curve, though single readings can be large or run the other way. Potencies of inconclusive entries are left out as doubtful fits.
# Test: Primary qHTS for delayed death inhibitors of the malarial parasite plastid, 48 hour incubation
# Conditions: P. falciparum luciferase growth in erythrocytes; series mostly up to 28.7 µM
# Procedure, shortened: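 Luciferase-expressing P. falciparum in infected erythrocytes (2% hematocrit, 0.1% parasitemia final) in RPMI 1640/0.5% Albumax were exposed to compound for 48 hours at 37 C, 5% CO2; growth read as luminescence.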
# % is scaled to controls: 0 for no effect and ±100 for the full control effect; potency is read from the fitted curve at half-maximal effect; tags tell the direction and shape of the fitted curve.
SMILES,Potency,"activity change, negative = inhibition"
CCN(CC)S(=O)(=O)c1cc(NC(=O)C(C)OC(=O)c2[nH]c(C)c(C(C)=O)c2C)ccc1C (stereo unspecified),active: 3.7 µM,
COc1ccccc1-c1coc2c(CN3CCOCC3)c(O)ccc2c1=O,"inconclusive [inhibitor, single point]",
Cc1ccc(NC(=O)c2cc(C)nc3ccccc23)cc1,inactive,
Cc1c(N=Nc2c(O)n(Cc3ccccc3)c(=O)[nH]c2=O)c(=O)n(-c2ccccc2)n1C,"inconclusive [inhibitor, single point]",
O=C(Nc1ccc(C(=O)N2CCCCC2)cc1)c1ccc(Br)cc1,"inconclusive [inhibitor, single point]",
CCOc1ccc(S(=O)(=O)N2CCNC(=O)C2)cc1,inactive,
Cc1ccc(Nc2c(-c3ccc(N4CCOCC4)cc3)nc3ncccn23)cc1,"inconclusive [inhibitor, single point]",
C=CCNC(=O)c1sc(-c2ccccc2)nc1C,inactive,
O=C1Nc2ccc(Br)cc2C1(O)c1ccc(F)cc1 (stereo unspecified),"inconclusive [inhibitor, partial curve]",
COc1cn(-c2ccccc2)nc1C(=O)Nc1ccc(C)cc1,"inconclusive [inhibitor, single point]",
Cc1ccc(C2(c3noc(CN4CCC(c5ccncc5)CC4)n3)CCCC2)cc1,"inconclusive [inhibitor, partial curve]",
COc1ccc(-c2csc3ncn(-c4ccccc4)c(=O)c23)cc1OC,"inconclusive [inhibitor, single point]",
CC(C)N1C(=O)/C(=C\c2nc3ccccc3c(=O)[nH]2)c2ccccc21,"inconclusive [inhibitor, single point]",
COc1cccc(/C=N/NC(=O)CNC(=O)CCc2ccccc2)c1O,"inconclusive [inhibitor, single point]",
O=[n+]1ccn([O-])c2ccccc21,inactive,
COC(=O)c1ccc(C2NC(=O)CCC2[N+](=O)[O-])cc1 (stereo unspecified),inactive,
Cc1nnc(CN(C)C(=O)CC2C(=O)NCCN2Cc2ccccc2C)o1 (stereo unspecified),inactive,
Cn1c2c(c(=O)[nH]c1=O)C(c1cccc(O)c1)C1=C(N2)c2ccccc2C1=O (stereo unspecified),"inconclusive [inhibitor, partial curve, poor fit]",
Cc1ccccc1NC(=O)NCCN1CC1,"inconclusive [inhibitor, single point]",
COc1ccc(CCNC(=O)CCc2ccc(S(=O)(=O)NCC(C)C)cc2)cc1OC,"inconclusive [inhibitor, partial curve, poor fit]",
O=C(Nc1ccccc1)N1CCSc2cc(Cl)ccc21,inactive,
COc1ccccc1S(=O)(=O)Cc1ccc(C(=O)N2CCN(c3ccccn3)CC2)o1,"inconclusive [inhibitor, single point]",
Cc1onc(-c2c(F)cccc2Cl)c1C(=O)OCC(=O)Nc1c(C)n(C)n(-c2ccccc2)c1=O,"inconclusive [inhibitor, single point]",

SMILES,Potency,"activity change, negative = inhibition"
Cc1ccc(S(=O)(=O)N2CCOC2CNC(=O)C(=O)NCCc2ccc(S(N)(=O)=O)cc2)cc1 (stereo unspecified),"inconclusive [inhibitor, single point]",
CCNc1nc(NCC)n2c(SCC(=O)NC34CC5CC(CC(C5)C3)C4)nnc2n1,"inconclusive [inhibitor, partial curve, poor fit]",
Cn1cc(Br)c(NS(=O)(=O)c2ccc(Cl)s2)n1,inactive,
COc1ccc(S(=O)(=O)N2CN3CCN(C3)C2)cc1OC,inactive,
Cc1cc(C)nc(SCc2nnc(SCC#N)n2-c2cccc(Cl)c2)n1,active: 7.38 µM,
Cc1ccc(Cn2ncc3c(N4CCN(C5CCCC5)CC4)ncnc32)cc1,"inconclusive [inhibitor, single point]",
COc1ccccc1COCC(O)CN1CCCCC1CO (stereo unspecified),,inactive: -13.7% [at 0.00184 µM]
COc1cc(/C=C2\C(=O)NN(c3ccccc3)C2=O)ccc1OCC(N)=O,inactive,
COC(=O)CC(c1ccc(C#N)cc1)n1c(C)ccc1C (stereo unspecified),active: 9.28 µM,
OCCNc1nc(Nc2ccc(Cl)c(Cl)c2)nc2ccccc12,"inconclusive [inhibitor, partial curve, poor fit]",
COc1ccc(CC(=O)Nc2oc(-c3ccccc3)c(-c3ccccc3)c2C#N)cc1OC,"inconclusive [inhibitor, single point]",
COc1ccccc1CNC(=O)CN1C(=O)COc2ccc(S(=O)(=O)N3CCCCC3)cc21,"inconclusive [inhibitor, partial curve, poor fit]",
COc1ccc(-c2csc(NC(=O)C3CCN(c4ncnc5sc(C)c(C)c45)CC3)n2)cc1OC,"inconclusive [inhibitor, partial curve]",
Cc1occc1C(=O)N/N=C/C1=C(N2CCOCC2)C(=C\c2ccc(Cl)cc2)/CC1,inactive,
C=CCc1c(C)nc(-c2ccccc2)nc1N/N=C/c1ccncc1,"inconclusive [inhibitor, single point]",
COc1ccc(NC(=O)C2CCCN(C(=O)Nc3ccc(OC)cc3)C2)cc1 (stereo unspecified),inactive,
COc1ccc(NC(=S)Nc2cccc([N+](=O)[O-])c2)cc1,inactive,
Cc1ccc(NC(=O)CNC(C)c2ccccc2)cc1 (stereo unspecified),inactive,
Cc1nn(C(=O)c2ccco2)c(C)c1Sc1ccc([N+](=O)[O-])cc1,inactive,
COC(=O)C1=C(C)N(c2cc(C)cc(C)c2)/C(=C/c2ccco2)C1=O,active: 8.28 µM,
O=C(CN1CCN(S(=O)(=O)c2ccccc2[N+](=O)[O-])CC1)Nc1ccc(N2CCOCC2)cc1,"inconclusive [inhibitor, partial curve, poor fit]",
S=C(NCc1ccc(Cl)cc1)Nc1ccc(Cl)cc1Cl,inactive,
CCO[C@H]1OC(C(=O)N2CCOCC2)=C[C@@H](c2ccc(C(F)(F)F)cc2)[C@@H]1CCCO,"inconclusive [inhibitor, single point]",
